Among all 48,000 compounds or so, about 450 (0.94%) were called active. Roughly 19% stayed inconclusive and do not appear here. The call rests on the fitted dose curve; in most records, active means well fitted inhibition curve with a large enough effect; inconclusive means small, poorly fitted or top-dose-only effect; inactive means no such curve, though single readings can be large or run the other way. Some of the results follow.
Assay: Primary qHTS for Identification of Small Molecule Inhibitors of Huntingtin Promoter Activity; further: nearly all actives have a fitted effect of over 50% in size
Settings: HEK293 HTT promoter firefly luciferase reporter (activity 0% = vehicle and -100% = no light), 24 h; series mostly up to 57.5 µM; activity change, negative = inhibition: at the top concentration
How it was run: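 Firefly luciferase readout (Dual-Glo, 10 min RT) after 24 h, 37 °C compound exposure (final up to 57.5 uM) of HEK293 reporter cells cultured 24 h beforehand; PTC124 at 50 uM final as control inhibitor; activity scaled vehicle 0%, zero RLU -100%.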

SMILES	activity change, negative = inhibition
COc1ccc(-c2c(C)nn3c(C(F)(F)F)cc(-c4ccc(Br)cc4)nc23)cc1	inactive: -38.3%
O=C(CN1CCCN(Cc2ccccc2Cl)S1(=O)=O)Nc1ccc2c(c1)OCCO2	inactive: -1.24%
Cc1cc(C)n2c(Nc3c(C)cccc3C)c(-c3ccsc3)nc2n1	inactive: -11.1%
CNC1[C@H](O)C(O[C@@H]2C(O)C(O[C@H]3O[C@H]([C@@H](C)NC)CC[C@H]3N)[C@@H](N)C[C@H]2N)OC[C@]1(C)O (some centres not stated)	inactive: -0.651%
CCN(C(=O)COc1cc(=O)n(C)c2ccccc12)c1cccc(C(F)(F)F)c1	inactive: -20.9%
Cc1ccc2c(c1)c1c3n2CCNC3CCC1 (configuration not stated)	inactive: 1.17%
Cc1ccccc1CN1CCc2nc(Nc3ccc4c(c3)OCCO4)ncc2C1	inactive: -26%
CCOc1ccc(C(=O)Nc2ccc(-c3nc4cc(CC)ccc4o3)cc2)cc1	inactive: -0.478%
O=C(c1cc2c(=O)[nH]c3ccccc3c2s1)N1CCN(c2ccc(F)cc2)CC1	inactive: -10.3%
CC(NC(=O)CCn1c(=O)c2cccn2c2ccc(F)cc21)c1ccccc1 (configuration not stated)	inactive: -2.21%
COc1cccc(NC(=O)c2oc3ccccc3c2NC(=O)C23CC4CC(CC(C4)C2)C3)c1	inactive: -15.4%
COc1ccc(CN2COc3ccc4c(C)cc(=O)oc4c3C2)cc1	inactive: -11%
COc1cccc2c1Oc1nc(-c3ccccc3)nc(SCC(=O)N3CCCCC3)c1C2	inactive: -10.8%
COc1ccc(NC(=O)C(=O)NCCc2csc(-c3ccc(Cl)cc3)n2)cc1	inactive: -11.8%
O=C(CCn1c(=O)c2cccn2c2ccc(F)cc21)NCCc1ccccc1Cl	inactive: -7.39%
COC(=O)c1ccc(NC(=O)Nc2nnc(N(C)C3CCCCC3)s2)cc1	inactive: 9.19%
CCCOc1ccc(Nc2nc(SC)ncc2C(=O)OCC)cc1	inactive: -19.8%
Cc1coc2c(C)c3oc(=O)c(CC(=O)N4CCCCC4)c(C)c3cc12	inactive: -4.57%
COc1ccc(-c2nc3nc(C)cc(Nc4ccc(C(C)=O)cc4)n3n2)cc1	inactive: -11.2%
O=S(=O)(c1ccc(Br)cc1)c1nc(-c2ccco2)oc1SCc1ccccc1Cl	inactive: -28%
Cc1ccc(CCNC(=O)c2nn(C)c3c2CSc2ccccc2-3)cc1	inactive: -17.9%
CCCCOc1ccc(CNC(=O)CN2CCSc3ccccc32)cc1	inactive: -35.6%
COc1cccc(CNC(=O)CCn2c(=O)c3cccn3c3ccc(F)cc32)c1OC	inactive: -13.3%
COc1ccc(-n2nc(C(=O)N(C)c3cccc(C(F)(F)F)c3)c3c4ccccc4n(C)c3c2=O)cc1	inactive: -7.28%
NC(=O)c1cccc(-c2cc(Nc3ccc(OC(F)(F)F)cc3)ncn2)c1	inactive: -13.4%
CCC(C(=O)N1CCN(c2cccc(C)c2C)CC1)n1nc(C)c2sc3ccccc3c2c1=O (configuration not stated)	inactive: -6.7%
CCCNC(=O)C1CCC(Cn2c(=O)c3sccc3n(Cc3cccc(OC)c3)c2=O)CC1 (configuration not stated)	inactive: -11.8%

— PubChem BioAssay AID1508623 (National Center for Advancing Translational Sciences (NCATS), 2021)
